Test systems include BT-549 breast; DU-145 prostate; EKVX NSCLC; HCC-2998 colon; OVCAR-4 ovarian; SF-539 CNS; T-47D breast; TK-10 renal; NCI-H23 lung; SN12C renal; SK-MEL-28 melanoma; SNB-75 CNS; SR leukemia.
Common to all, as to assay: NCI anticancer screen, dose series, 48 h

Molecules are shown by their SMILES.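 Test compounds were applied to cells in 96-well plates for 48 hours at 5 doses. The concentration for 50% growth inhibition is given as GI50.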 For part of its entries the source gives two or more results. The other results are left out here. The source may hold further records. For part of these data: A record mostly stands for its own series of concentrations, which the source does not state; a value can be the end of its range. What stands in brackets tells the records apart. A, B and so on number the origins entry by entry. For part of these data: The records of an entry are repeats across runs, samples, wells, individuals or studies.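 The concentration for full growth arrest is given as TGI.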 Bounds are passed on as bounds.

With `O=C(Cc1ccc(-c2ccc(OCCN3CCOCC3)cc2)cn1)NCc1ccccc1`, the TGI in the assay on BT-549 breast is > 42.6 µM [sample A, mean of 2 tests] and 1.85 µM [sample B, 1 test]; in the assay on DU-145 prostate, 183 nM [sample A, mean of 2 tests] and > 3.06 µM [sample B, mean of 2 tests]; in the assay on HCC-2998 colon, > 100 µM [sample A, 1 test] and 1.95 µM [sample B, mean of 2 tests]; with SF-539 CNS it was 26.3 µM [sample A, 1 test] and 132 nM [sample B, mean of 2 tests]. The GI50 is 8.3 µM [sample A, mean of 2 tests] and 57.9 nM [sample B, mean of 2 tests] in the assay on EKVX NSCLC; 96.2 nM [sample A, mean of 2 tests] and 1.41 µM [sample B, mean of 2 tests] in the assay on OVCAR-4 ovarian; 10.3 µM [sample A, 1 test] and 42.8 nM [sample B, 1 test] with T-47D breast; 935 nM [sample A, mean of 2 tests] and 61 nM [sample B, 1 test] in the assay with TK-10 renal.
In the case of `CC[C@H](C)C(=O)O[C@H]1C[C@@H](C)C=C2C=C[C@H](C)[C@H](CC[C@@H]3C[C@@H](O)CC(=O)O3)[C@H]21`, the TGI with NCI-H23 lung is 7.68 µM [sample A] and > 100 µM [sample B] and > 49.4 µM [sample C]; in the assay on SN12C renal, 9.69 µM [sample A] and > 100 µM [sample B] and 18.7 µM [sample C].
For `O=c1[nH]c(=O)n(C2CC(O)C(CO)O2)cc1F` (stereo not given), the TGI with HCC-2998 colon was 27.7 µM [sample A, mean of 2 tests] and 5.4 µM [sample A, mean of 3 tests] and 78.2 µM [sample A, mean of 69 tests] and > 100 µM [sample B, mean of 5 tests]; in the assay on SF-539 CNS, 259 nM [sample A, mean of 3 tests] and 3.88 µM [sample A, mean of 97 tests] and > 100 µM [sample B, mean of 5 tests]; in the assay with SNB-75 CNS, > 2.5 mM [sample A, 1 test] and 214 µM [sample A, mean of 105 tests] and > 100 µM [sample B, mean of 4 tests]. Besides, the GI50 in the assay on SK-MEL-28 melanoma was 5.74 µM [sample A, 1 test] and 3.11 µM [sample A, mean of 111 tests] and 2.17 µM [sample A, mean of 4 tests] and > 85.1 µM [sample B, mean of 5 tests]; in the assay on SR leukemia, 13.7 nM [sample A, mean of 3 tests] and 379 nM [sample A, mean of 59 tests] and > 59.8 µM [sample B, mean of 3 tests].

The record behind these values is PubChem BioAssay (NCI).
